Some of the results follow.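 Rule for the calls: active = permutation test q below 0.05 after Benjamini-Hochberg correction; inactive = q of 0.05 or more.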
system: A549; assay: mean average precision of replicate retrieval against DMSO controls (Cell Painting phenotypic activity) (fraction (0-1)); higher = stronger, more reproducible morphological phenotype distinct from DMSO; extreme values may be limits of the assay; settings: 24 h; 5 µM
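Note: cosine similarity of well-level aggregated Cell Painting profiles ranks each compound's replicate wells against DMSO wells, four replicate plates, significance from 100,000 rank shuffles.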

SMILES | mean average precision
CN(C)CC/C=C1/c2ccccc2COc2ccc(CC(=O)O)cc21 | inactive: 0.303
COc1ccc(Cl)cc1C(=O)NCCc1ccc(S(=O)(=O)NC(=O)NC2CCCCC2)cc1 | active: 0.353
C=C[C@H]1CN2CC[C@H]1C[C@@H]2[C@H](O)c1ccnc2ccc(OC)cc12 | active: 0.324
CN(C)C(=O)C(CCN1CCC(O)(c2ccc(Cl)cc2)CC1)(c1ccccc1)c1ccccc1 | active: 1
CNC(=O)[C@H](Cc1c[nH]c2ccccc12)NC(=O)[C@@H](CC(=O)NO)CC(C)C | inactive: 0.145
CC(C)[C@H]1c2ccc(F)cc2CC[C@@]1(CCN(C)CCCc1nc2ccccc2[nH]1)OC(=O)C1CC1 | active: 1
COCC(=O)NC/C=C/c1ccc2ncnc(Nc3ccc(Oc4ccc(C)nc4)c(C)c3)c2c1 | active: 1
C(#Cc1nc2ncccc2nc1OCCN1CCCC1)c1ccccc1 | active: 1
C=C[C@H]1CN2CC[C@H]1C[C@@H]2[C@@H](O)c1ccnc2ccc(OC)cc12 | active: 0.77
CC(C)(C)n1nc(-c2ccc(Cl)cc2)c2c(N)ncnc21 | active: 1
CC(C)COCC(CN(Cc1ccccc1)c1ccccc1)N1CCCC1 (stereo not given) | active: 0.885
CN(C)c1ccc(O)c2c1C[C@H]1C[C@H]3[C@H](N(C)C)C(=O)C(C(N)=O)C(=O)[C@@]3(O)C(=O)C1C2=O (stereo not given in full) | inactive: 0.109
O=C(O)/C=C/c1ccc(Cn2ccnc2)cc1 | inactive: 0.133
C/C(=C\c1csc(C)n1)[C@@H]1C[C@@H]2O[C@]2(C)CCC[C@H](C)[C@H](O)[C@@H](C)C(=O)C(C)(C)[C@@H](O)CC(=O)N1 | active: 1
Cc1cc(Cl)ccc1OCCCC(=O)NO | active: 0.569
CCCCOc1cc(CC2CNC(=O)N2)ccc1OC (stereo not given) | active: 0.412
O=C1NC(=O)c2cc(Nc3ccc(F)cc3)c(Nc3ccc(F)cc3)cc21 | inactive: 0.259
O=C1OC(c2ccc(O)cc2)(c2ccc(O)cc2)c2ccccc21 | inactive: 0.232
Cc1cnc(-c2ccccc2C(C)C)nc1NCc1ccc(-n2ccnn2)cc1 | active: 0.666
CCOC(=O)C1=C(C)NC(C)=C(C(=O)OC)C1c1cccc(Cl)c1Cl (stereo not given) | active: 0.91

Reference: the supplement of paper PMC11166567
